The source of these data is PubChem BioAssay AID1745853 (National Center for Advancing Translational Sciences (NCATS), 2022).

The list shows a part of the results. The main result of the screen is listed elsewhere. These columns were measured beside it and carry no call.

Holding throughout (test): Primary Screen for Target Class Profiling of Small Molecule Inhibitors of Methyltransferases
Assay [1] addresses Glycine N-methyltransferase (Homo sapiens) (UniProt Q14749). As to conditions: purified enzyme, MTase-Glo SAH luminescence; measured here: GNMT inhibition; at 40 µM; stronger effect = lower value. A digest of the protocol: (§1)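 Each enzyme was reacted with SAM and its substrate, with compounds tested once at 40 uM; SAH formed was read by MTase-Glo luminescence.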
The target in assay [2] is Guanidinoacetate N-methyltransferase (Homo sapiens) (UniProt Q14353). As to conditions: purified enzyme, MTase-Glo SAH luminescence; measured here: GAMT inhibition; at 40 µM; stronger effect = lower value. A digest of the protocol:
as §1

For assay [3], the target named is Histamine N-methyltransferase (Homo sapiens) (UniProt P50135). The note with it: purified enzyme, MTase-Glo SAH luminescence; measured here: HNMT inhibition; at 40 µM; stronger effect = lower value. In a few lines: as §1
The target in assay [4] is Nicotinamide N-methyltransferase (Homo sapiens) (UniProt P40261). The note with it: purified enzyme, MTase-Glo SAH luminescence; measured here: NNMT inhibition; at 40 µM; stronger effect = lower value. A digest of the protocol: as §1
The target of assay [5] is Phenylethanolamine N-methyltransferase (Homo sapiens) (UniProt P11086). As to conditions: purified enzyme, MTase-Glo SAH luminescence; measured here: PNMT inhibition; at 40 µM; stronger effect = lower value. In a few lines: as §1
% is scaled to controls: 0 for no effect and ±100 for the full control effect.

In the case of `COCCn1cnnc1CNc1cc(-c2ccncc2)nc2ccnn12`, the activity change, negative = inhibition in assay [1] is -2.76%; in assay [2] it was 2.36%; in assay [3], -2.83%; in assay [4], -4.31%; in assay [5] it was 11.7%.
On to `O=C1CC(c2cn[nH]c2C(=O)O)c2c(n[nH]c2-c2cccs2)N1` (stereo not given), for which the activity change, negative = inhibition was -7.78% in assay [1]; -9.64% in assay [2]; -2.97% in assay [3]; -5.47% in assay [4]; 6.32% in assay [5].
As to `O=C(NCC1CCN(c2cc(-c3ccccc3)[nH]n2)CC1)c1ccc2nc[nH]c2c1`, the activity change, negative = inhibition in assay [1] was -13.1%; in assay [2], -3.06%; in assay [3] it was -6.01%; in assay [4], -8.4%; in assay [5], -5.64%.
For `CN(C)CC(=O)N1CCC(c2ccc(NC(=O)c3ncc(C#N)[nH]3)c(C3=CCCCC3)c2)CC1`, the activity change, negative = inhibition was -3.2% in assay [1]; -1.56% in assay [2]; -0.057% in assay [3]; -19.1% in assay [4]; -11.2% in assay [5].
In the case of `Cc1cc(C)cc(NC(=S)N[C@H]2CO[C@H]3[C@@H]2OC[C@H]3OC(=O)NC2CCCCC2)c1`, the activity change, negative = inhibition was -2.77% in assay [1]; -1.23% in assay [2]; -4.38% in assay [3]; -9.26% in assay [4]; -3.75% in assay [5].
As to `C=CC(C)(O)CC/C=C(\C)C1CC=C(C)C(=O)O1` (stereo not given), the activity change, negative = inhibition in assay [1] is 0.677%; in assay [2] it was -4.39%; in assay [3], 6.68%; in assay [4], -20%; in assay [5], 1.74%.
For `CCOCCCN1C(=O)c2cc3ccc(OC)cc3n2CC1(C)C(=O)NC1CCCCC1` (stereo not given), in that order: -1.57%, 3.67%, -0.61%, 1.57% and -1.84%.
On to `CC(C)c1ccc(CO)cc1O[C@@H]1O[C@H](CO)[C@@H](O)[C@H](O)[C@H]1O`, for which the activity change, negative = inhibition in assay [1] is 0%; in assay [2], 8.2%; in assay [3] it was 12.7%; in assay [4], -2.83%; in assay [5], 4.95%.
In the same order, the values of `CC(C)CNC(=O)c1ccc2c(=O)n(C(C)C)c3nn(CC(=O)Nc4cccc(F)c4)c(=O)n3c2c1` are 0.778%, 0%, 1.19%, -2.52% and 1.44%.
As for `COc1cccc(CSc2nnc3n(Cc4ccccc4)c(=O)c4ccc(C(=O)NC(C)C)cc4n23)c1`, the activity change, negative = inhibition was 3.57% in assay [1]; 4.32% in assay [2]; 8.22% in assay [3]; -0.746% in assay [4]; 4.53% in assay [5].
In the same order, the values of `COc1ccccc1CNc1nc2c(-c3ccc(Cl)cc3)nnn2c2ccccc12` are -1.43%, 0%, 2.65%, 3.92% and 0.373%.
As to `Cn1cc(-c2cn(C)c(=O)n3cc(CNc4ccccc4)nc23)cn1`, the activity change, negative = inhibition in assay [1] is -24.4%; in assay [2], -7.4%; in assay [3], -6.53%; in assay [4], -16.8%; in assay [5], -16%.
Take `CCc1ccc(NC(=O)c2sc(=S)n3c2[nH]c(=O)c2cc(Cl)ccc23)cc1`: the activity change, negative = inhibition was -16% in assay [1]; 0% in assay [2]; 1.41% in assay [3]; -21.4% in assay [4]; -29.8% in assay [5].
For the compound `CC1=C(C)C(=O)C(CCCCC#CCCCC#CCO)=C(C)C1=O`, the activity change, negative = inhibition was -37% in assay [1]; 12% in assay [2]; 5.85% in assay [3]; -4.38% in assay [4]; 2.85% in assay [5].
`COc1ccc(C)cc1NS(=O)(=O)c1cc2[nH]c(=O)[nH]c2cc1Cl`: the activity change, negative = inhibition in assay [1] was -5.27%; in assay [2], 1.24%; in assay [3], -3.31%; in assay [4] it was -9.6%; in assay [5], -11%.
Regarding `CN(C)C(=O)c1ccc(S(=O)(=O)c2ccc(NC(=O)[C@@](C)(O)C(F)(F)F)c(Cl)c2)cc1`, the activity change, negative = inhibition in assay [1] was 2.58%; in assay [2] it was -0.1%; in assay [3], 9.13%; in assay [4], -12.6%; in assay [5] it was 5.54%.
For `CCOC(=O)C1CCN(C(=O)CN(C)S(=O)(=O)c2ccc3c(c2)CCCC(=O)N3)CC1`, in that order: 7.57%, 0.241%, 12.6%, 11.3% and 6.07%.
As for `CC(N)(Cc1ccc(O)cc1)C(=O)O` (stereo not given), the activity change, negative = inhibition was 2.06% in assay [1]; -4.47% in assay [2]; 3.98% in assay [3]; -12.7% in assay [4]; -8.15% in assay [5].
As to `CC(C)NCC(O)c1ccc(NS(C)(=O)=O)cc1` (stereo not given), the activity change, negative = inhibition was 7.13% in assay [1]; 13% in assay [2]; 13.1% in assay [3]; -4.44% in assay [4]; 3.74% in assay [5].
Take `C=C(C)[C@H]1C[C@@H](O)C(=C)CC[C@@H](O)C(=C)[C@@H](O)C1`: the activity change, negative = inhibition in assay [1] is 6.19%; in assay [2], 4.77%; in assay [3], 12.6%; in assay [4] it was -7.86%; in assay [5] it was 10.1%.
As to `COc1ccc(-c2nnc(-c3ccccc3)o2)cc1S(=O)(=O)N1CCSCC1`, the activity change, negative = inhibition was 2.66% in assay [1]; 0.96% in assay [2]; 0.821% in assay [3]; -0.792% in assay [4]; 4.47% in assay [5].
As for `Cc1nn(CC(=O)N2CCCCCC2)c(=O)c2nc(C(C)C)sc12`, the activity change, negative = inhibition is -3.64% in assay [1]; -0.586% in assay [2]; -1.55% in assay [3]; -2.67% in assay [4]; 1.32% in assay [5].
As to `CCCn1c(=O)c2cc(F)ccc2n2c(SCC(=O)Nc3ccc(Cl)cc3)nnc12`, the activity change, negative = inhibition is 3.79% in assay [1]; 0.043% in assay [2]; 11.3% in assay [3]; -4.48% in assay [4]; 5.36% in assay [5].
Turning to `CCC(C)NC(=O)c1ccc2c(=O)n(C)c3nnc(SCC(=O)NCc4ccc(C)cc4)n3c2c1` (stereo not given), the activity change, negative = inhibition in assay [1] was 1.04%; in assay [2], 2.42%; in assay [3] it was 0.929%; in assay [4], -1.51%; in assay [5] it was -1.18%.
For the compound `O=C(CCCn1cncn1)N1CCCC(CCc2ccccc2C(F)(F)F)C1` (stereo not given), the activity change, negative = inhibition was -6.72% in assay [1]; -8.18% in assay [2]; -4.19% in assay [3]; -19.1% in assay [4]; -5.2% in assay [5].
For `CCN(CCCNC(=O)CCc1nnc2n(Cc3ccccc3)c(=O)c3ccccc3n12)c1cccc(C)c1`, in that order: -8.03%, -12.2%, -20.2%, -19.5% and -14.7%.
`Cc1ccc(Cn2c(=O)c3ccc(C(=O)NC(C)C)cc3n3c(=O)n(Cc4ccc(F)cc4)nc23)cc1`: the activity change, negative = inhibition in assay [1] was determined as 0.809%; in assay [2] it was 3.96%; in assay [3], 0.595%; in assay [4] it was 1.8%; in assay [5], 0.707%.
In the same order, the values of `CC(=O)O[C@H]1C[C@@H]2[C@]3(CC[C@]4(C)[C@@H](C5(C)CCC(C(C)(C)O)O5)[C@@H](O)C[C@@]24C)C[C@@]32CC[C@H](O[C@@H]3OC[C@@H](O)[C@H](O)[C@H]3O)C(C)(C)[C@H]12` (stereo not given in full) are -5.29%, -16.6%, 1.52%, -27.2% and 0.537%.
`CC(NS(=O)(=O)c1ccc(Cl)c(-c2nnc(-c3ccccc3)o2)c1)C(=O)O` (stereo not given): the activity change, negative = inhibition turned out to be 8.12% in assay [1]; 4.38% in assay [2]; 8.15% in assay [3]; 8.38% in assay [4]; 9.43% in assay [5].
